# From PubChem BioAssay AID624296 (National Center for Advancing Translational Sciences (NCATS), 2012)
# The campaign covered roughly 350,000 compounds. About 9,900 (2.8%) were called active. Inconclusive means that the source gave no clear call. Such entries were picked first, then a sample of the others. The call rests on the fitted dose curve; in most records, active means well fitted activation curve with a large enough effect; inconclusive means small, poorly fitted or top-dose-only effect; inactive means no such curve, though single readings can be large or run the other way. Potencies of inconclusive entries are left out as doubtful fits.
# Experiment: A quantitative high throughput screen for small molecules that induce DNA re-replication in MCF 10a normal breast cells. Further: nearly all actives have a fitted effect of over 50% in size. On activity, positive = re-replication: % of control where 0% means no effect.
# Conditions: MCF 10A DNA re-replication, Hoechst nuclear intensity, 48 h; activity, positive = re-replication: at 46.1 µM (top of the series)
# Potency means the concentration at half of the fitted maximal effect; tags describe the fitted curve by direction and shape.
Structure (SMILES),Potency,"activity, positive = re-replication"
COc1ccccc1N(C)S(=O)(=O)c1ccc(C(=O)N2CCCc3ccccc32)cc1,"inconclusive [activator, single point]",
O=S(=O)(c1cc(Cl)c(Cl)cc1Cl)N1CCN2CCCC2C1 (centres undefined),inactive,
O=C(Nc1ccc(N2CCOCC2)c(S(=O)(=O)Nc2ccc(Cl)cc2)c1)c1cnccn1,inactive,
OCC[C@H]1NCc2cc(CO)cc(-c3ccccc3)c21,"inconclusive [activator, single point]",
CCCOc1cccc(-c2cc(-c3n[nH]c(=S)n3CC)c3ccccc3n2)c1,"inconclusive [activator, single point]",
CCn1ncc(Br)c1C(=O)Nc1ccc(C(C)C)cc1,"inconclusive [activator, single point]",
Cc1ccc(S(=O)(=O)N2[C@@H](c3ccccc3)C(C(=O)O)=CC[C@H]2c2cccc(C)c2)cc1,,inconclusive: 40% [activator]
CN(C)CCCNC(=O)C(=O)Nc1ccc2c(c1)N(S(=O)(=O)c1cccs1)CCC2,"inconclusive [activator, single point]",
CCCC(=O)NC(c1ccc(OC)cc1)c1ccc2cccnc2c1O (centres undefined),"inconclusive [activator, single point]",
CCOc1ccc(Cl)cc1S(=O)(=O)N1CCC(C(=O)NCc2ccco2)CC1,inactive,
O=C(Cn1cc(Cl)ccc1=O)c1ccc(Cl)cc1,inactive,
O=c1c2ccccc2oc2cc(C#CC3(O)CCCCC3)ccc12,active: 20.6 µM,
CN(Cc1nccs1)C(=O)c1ccc2nc(Cc3ccccc3F)oc2c1,inactive,
COCCCNCCCCSc1ccc(Cl)cc1,"inconclusive [activator, partial curve, poor fit]",
COC(=O)[C@@]12CCCN1[C@H](c1ccc(-c3ccc(Cl)c(Cl)c3)c(OC)c1)[C@H]1C(=O)N(C)C(=O)[C@H]12,"inconclusive [activator, single point]",
Cc1nc(C)c(-c2csc(NCc3ccco3)n2)s1,inactive,
COc1ccc(C(CC(=O)c2ccc(C)cc2)Nc2ccc([N+](=O)[O-])cc2)cc1 (centres undefined),"inconclusive [activator, partial curve, poor fit]",
COc1cc([N+](=O)[O-])ccc1-c1ccc(/C=N\n2cnnc2)o1,inactive,
CC(CNc1ccc([N+](=O)[O-])cc1)NC(=O)c1ccccc1Br (centres undefined),"inconclusive [activator, full curve, poor fit]",
Cc1cc(N2CCC(C)CC2)n2ncc(-c3ccccc3)c2n1,"inconclusive [activator, single point]",
CCCNC(=O)C(Cc1ccccc1F)NC(=O)c1ccc(C#N)cc1 (centres undefined),"inconclusive [activator, single point]",
O=[N+]([O-])c1ccc(N2CCN(S(=O)(=O)c3ccccc3)CC2)cc1,"inconclusive [activator, partial curve, poor fit]",
CC(C)(C)c1ccc(C(=O)NC2CCN(Cc3ccccc3)CC2)cc1,inactive,

Structure (SMILES),Potency,"activity, positive = re-replication"
Cc1cccc(OCC(=O)Nc2ccccc2N2CCCC2)c1C,"inconclusive [activator, single point]",
O=C(Nc1ccc(-c2cccc(F)c2)cc1)C1CCCN(Cc2ccccn2)C1 (centres undefined),"inconclusive [activator, single point]",
O=C(Cc1ccc(S(=O)(=O)N2CCOCC2)s1)Oc1ccc(F)cc1,"inconclusive [activator, full curve, poor fit]",
CCOC(=O)C(C)Oc1cccc2c(=O)n(CC(=O)Nc3ccc4c(c3)OCCO4)ccc12 (centres undefined),inactive,
O=C(O)c1ccc(-n2nnnc2SCc2ccccc2F)cc1,"inconclusive [activator, partial curve, poor fit]",
O=C(NCC1CCCC(CNC(=O)Nc2ccc(Cl)cn2)C1)Nc1ccc(Cl)cn1 (centres undefined),"inconclusive [activator, partial curve, poor fit]",
CCCS(=O)(=O)c1ccc(COC(=O)c2cccc(NC(=O)C(C)C)c2)cc1,"inconclusive [activator, single point]",
CSCC[C@H](NC(=O)[C@@H]1CSC2c3ccccc3C(=O)N21)C(=O)N1CCC[C@H]1CO (some centres undefined),inactive,
Fc1ccc(-n2ncc3c(SCc4cccnc4)ncnc32)cc1,"inconclusive [activator, partial curve, poor fit]",
CCN(CC(=O)Nc1c(F)cccc1F)C(=O)CNC(=O)c1sc2ccccc2c1Cl,"inconclusive [activator, single point]",
CC(C)CN(C(=O)COc1ccc(-c2nnco2)cc1)C1CCS(=O)(=O)C1 (centres undefined),"inconclusive [activator, partial curve, poor fit]",
O=C(Nc1ccccc1C(=O)NCc1ccco1)Nc1cccc2ccccc12,"inconclusive [activator, partial curve]",
COc1cc(NC(=O)c2ccccc2NS(=O)(=O)c2ccc(Cl)s2)cc(OC)c1,active: 14.6 µM,
C=CCn1c(COc2ccccc2-c2ccccc2)nnc1SCC(=O)NC(=O)NCc1ccco1,"inconclusive [activator, single point]",
CSC1=NSC2=NC(=O)/C(=C\c3coc4ccccc4c3=O)C(=N)N12,"inconclusive [activator, single point]",
COc1ccc(CNC(=O)c2ccc[nH]2)cc1,inactive,
CC1C(=O)N(Cc2ccc([N+](=O)[O-])cc2)c2ccccc2N1C(=O)c1c(F)cccc1F (centres undefined),inactive,
Cc1ccc(S(=O)(=O)NCCC(=O)Nc2cccc(Cl)c2)cc1,inactive,
CN(CCCC(=O)Nc1ccc(OC(F)F)cc1)S(=O)(=O)c1ccc(F)cc1,"inconclusive [activator, partial curve, poor fit]",
COc1ccc(-c2cn3ccccc3n2)cc1OC,"inconclusive [activator, single point]",
O=C(NCCc1ccccc1)C(=O)NCC1CCCN1S(=O)(=O)c1cccs1 (centres undefined),"inconclusive [activator, single point]",
O=c1[nH]cnc2scc(-c3ccc(Br)cc3)c12,inactive,
Cc1ccc(/C=N/N=C2/NC(=O)C(CC(=O)Nc3ccccc3)S2)o1 (centres undefined),"inconclusive [activator, single point]",

Structure (SMILES),Potency,"activity, positive = re-replication"
CSc1ccccc1OCc1cc(C(=O)NC2CCc3ccccc32)no1 (centres undefined),inactive,
CCN(CC)C(=O)[C@H]1CC(CC(=O)NC/C=C(\C)CCC=C(C)C)C(=O)N2CCc3c([nH]c4ccc(OC)cc34)[C@]12C (some centres undefined),"inconclusive [activator, partial curve, poor fit]",
Cc1ccccc1-c1nc2c(s1)CCc1onc(-c3ccc(Cl)cc3)c1-2,inactive,
CC(C(=O)NCCS(=O)(=O)c1ccc(Br)cc1)S(=O)(=O)c1ccc(Cl)cc1 (centres undefined),inactive,
Cc1cc(-c2sccc2C)nc(-n2cccc2)n1,"inconclusive [activator, partial curve, poor fit]",
Cc1noc(C)c1COc1ccc(C(=O)OCC(=O)Nc2ccc(S(N)(=O)=O)cc2)cc1,inactive,
Cc1ccc(CNCC2CCCO2)s1 (centres undefined),"inconclusive [activator, single point]",
Cc1cc(OC(C)C)nc(-c2ccccc2O)n1,"inconclusive [activator, partial curve, poor fit]",
COc1cc(/C=C(/C#N)c2nc3ccccc3[nH]2)ccc1OC(=O)c1ccco1,inactive,
COc1ccccc1-c1ccc(SCc2cccc(F)c2)nn1,"inconclusive [activator, partial curve, poor fit]",
COc1cccc2[nH]c3ccccc3c(=O)c12,"inconclusive [activator, single point]",
CN1CCN(C(=O)C2=C[C@@H](c3coc4ccccc4c3=O)C[C@@H](OCc3ccc(CO)cc3)O2)CC1,inactive,
Cc1ccc(Cn2ccc(NC(=O)c3cc(-c4ccc(F)cc4)on3)n2)cc1,"inconclusive [activator, partial curve]",
CCC(C)n1c(SCC(=O)Nc2cc(C)on2)nc2ccccc2c1=O (centres undefined),"inconclusive [activator, single point]",
COc1ccc(C(=O)NC(=S)N2CCCc3ccccc32)cc1OC,inactive,
CC(=O)Nc1ccc(N2C(=O)CC(Sc3nc(C)cc(C)n3)C2=O)cc1 (centres undefined),inactive,
CC(=O)N1CCN(C(=O)c2cc(C)oc2C)CC1,"inconclusive [activator, partial curve, poor fit]",
OC1(c2ccc3c(c2)OCO3)CCN(Cc2ccccn2)CC1,"inconclusive [activator, single point]",
Cc1cc(C)c(C)c(OCCn2ccnc2)c1,"inconclusive [activator, single point]",
CC(C)C[C@H](NC(=O)N1CC(=O)Nc2ccccc21)C(=O)N1CCC[C@H]1C(=O)O,"inconclusive [activator, full curve, poor fit]",
Cc1cc(OCC(=O)NCCN2CCOCC2)c2c(C)c(C)c(=O)oc2c1,inactive,
CCOCCCN(CC(=O)NC1CCCC1)C(=O)C(=O)Nc1ccc2c(c1)OCCO2,"inconclusive [activator, single point]",
COc1cccc(/C=N\NC(=O)c2ccc(Cn3cc(Br)c([N+](=O)[O-])n3)o2)c1O,"inconclusive [activator, single point]",
